In patent US20220340685A1, “COMBINATION THERAPY WITH ENTPD2 AND CD73 ANTIBODIES” (Novartis AG, priority 2019, published 2022):

T1: human ENTPD2 (Homo sapiens, UniProt Q9Y5L3)
T1 construct: residues 29-462 of human or cyno ENTPD2; GP67 signal peptide (N); made in house; host or cells: High Five (Trichoplusia ni) insect cells, baculovirus
T1 sequence (Q9Y5L3 29-462): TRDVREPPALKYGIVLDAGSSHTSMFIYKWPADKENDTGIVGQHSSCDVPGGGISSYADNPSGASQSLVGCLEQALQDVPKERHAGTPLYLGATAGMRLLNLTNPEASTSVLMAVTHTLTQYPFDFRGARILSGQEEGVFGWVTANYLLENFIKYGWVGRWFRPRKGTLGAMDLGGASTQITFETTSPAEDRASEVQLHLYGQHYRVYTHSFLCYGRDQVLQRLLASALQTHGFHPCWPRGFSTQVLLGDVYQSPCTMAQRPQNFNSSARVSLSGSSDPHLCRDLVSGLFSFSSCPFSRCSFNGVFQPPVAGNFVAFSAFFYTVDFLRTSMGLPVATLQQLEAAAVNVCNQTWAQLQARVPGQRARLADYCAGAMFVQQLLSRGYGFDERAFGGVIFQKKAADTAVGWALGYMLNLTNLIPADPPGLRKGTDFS

T2: recombinant human ENTPD2 (residues 29-462) (Homo sapiens, UniProt Q9Y5L3)
T2 construct: residues 29-462 of human or cyno ENTPD2; GP67 signal peptide (N); made in house; host or cells: High Five (Trichoplusia ni) insect cells, baculovirus
T2 sequence (Q9Y5L3 29-462): T1 sequence (Q9Y5L3 29-462)

B1: mAb1: humanized anti-human ENTPD2 human IgG1 antibody derived from mAb17; heavy chain SEQ ID NO: 12, light chain SEQ ID NO: 23 (antibody)
heavy: EVQLVQSGAEVKKPGESLKISCKASGYTFTDYNMDWVRQMPGKGLEWMGDINPKYDISTYNQQFKGQVTISADKSIRTAYLQWSSLKASDTAMYYCARRGFFLYYGINYYYFDVWGQGTLVTVSSASTKGPSVFPLAPSSKSTSGGTAALGCLVKDYFPEPVTVSWNSGALTSGVHTFPAVLQSSGLYSLSSVVTVPSSSLGTQTYICNVNHKPSNTKVDKRV[left out - human IgG1 Fc]
light: DIQLTQSPSSLSASVGDRVTITCSASSSVSYIHWFQQKPGKAPKLLIYSTSNLASGVPSRFSGSGSGTFFTLTISSLQPEDFATYFCHQWSSYPWTFGQGTKVEIKRTVAAPSVFIFPPSDEQLKSGTASVVCLLNNFYPREAKVQWKVDNALQSGNSQESVTEQDSKDSTYSLSSTLTLSKADYEKHKVYACEVTHQGLSSPVTKSFNRGEC
B2: mAb6: humanized anti-human ENTPD2 antibody derived from mAb16; probably heavy chain SEQ ID NO: 72, light chain SEQ ID NO: 76 (antibody)
heavy: QVQLQESGPGLVKPSQTLSLTCTVSGYSITSGYYWNWIRQHPGKGLEWMGYISYDADNNYNPSLKNRITISRDTSKNQFSLKLSSVTAADTAVYYCAGGYYRYGLGSYSGSYYYVMDYWGQGTTVTVSSASTKGPSVFPLAPSSKSTSGGTAALGCLVKDYFPEPVTVSWNSGALTSGVHTFPAVLQSSGLYSLSSVVTVPSSSLGTQTYICNVNHKPSNTKVDKRV[left out - human IgG1 Fc]
light: DTQMTQSPSSLSVSVGDRATITCKASQSVDYEGHSYMNWYQQKPGKAPKLLIYAASNLESGVPSRFSGSGSGTDFTLTISSVQPEDFATYYCQQSNEDPPTFGGGTKLEIKRTVAAPSVFIFPPSDEQLKSGTASVVCLLNNFYPREAKVQWKVDNALQSGNSQESVTEQDSKDSTYSLSSTLTLSKADYEKHKVYACEVTHQGLSSPVTKSFNRGEC

Legend:
human ENTPD2 = molecular target: T1, human ENTPD2; experiment: Biacore SPR kinetic affinity to human ENTPD2 ECD; format: binding; settings: 25° C.; for Human ENTPD2 ka: association rate; for Human ENTPD2 kd: dissociation rate
Description: Biacore Screening: Affinity was measured by determining the kinetic rate constants using surface plasmon resonance (SPR) on a Biacore T200 or T100 with the T200 sensitivity upgrade instrument (Biacore, GE Healthcare). Antibodies were captured on CM5 sensor chips (Biacore, GE Healthcare) prepared with a mouse anti-human IgG Fc antibody (ThermoFisher catalogue # 05-4200) amine coupled to the surface. […] ENTPD2 analytes were allowed to associate for 180 s and dissociate for up to 1800 s depending on the off-rate of the antibody at a flow rate of 30 μL/min. The running buffer was PBS pH 7.2 (prepared from a Corning 10X stock, cat# 46-013-CM) +0.05% Tween 20. Regeneration was accomplished with 30 s injections of 3 or 4 M MgCl2 to remove all the captured antibody and remaining complex from the surface, after which fresh antibody was captured. The raw data were analyzed using Biacore T200 Evaluation Software version 1.0 and fit to a 1:1 binding model, with all parameters set to fit globally except for RI, which was set to fit locally.

[1] = molecular target: T2, recombinant human ENTPD2 (residues 29-462); experiment: Biochemical human ENTPD2 functional assay (Transcreener ADP2 TR-FRET)
NIH/3T3 cells = experiment: Cross reactivity: FACS binding to parental NIH/3T3 control cells; settings: 50 nM antibody
[2] = Cynomolgus monkey single and multiple dose pharmacokinetics
H520 cells = experiment: Cross reactivity: FACS binding to H520 cells (ENTPD3 and ENTPD8 expression); design: species or system human; settings: 50 nM antibody
Summary of the method: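 Antibodies incubated with live H520 cells (Taqman Ct 25 ENTPD3, Ct 26 ENTPD8) 30 min at 4 °C; bound IgG detected with APC anti-human IgG Fcγ F(ab′)2, 15 min at 4 °C. Geometric mean fluorescence on live single cells, propidium iodide exclusion.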

[3] = Anti-drug antibody (ADA) formation in cynomolgus monkey PK study; format: in vivo; settings: male cynomolgus monkeys, 3, 10, 30 and 100 mg/kg i.v.
Description: Anti-drug antibody (ADA) formation was also examined in this study.

[4] = cynomolgus monkey, in vivo, iv
[5] = system: human ENTPD2 engineered B16LM3 clone B5; experiment: Human ENTPD2 engineered B16LM3 clone B5 model, combination with anti-PD-1 Ab; format: in vivo; settings: for Tumor Response ΔT/ΔC (%): Day 7; for anti-tumor efficacy: anti-ENTPD2 Ab i.v. day 1, anti-PD-1 Ab 10 mg/kg i.p. D1 and D5
Description: This model was derived from the B16LM3 melanoma model, where endogenous mouse ENTPD2 expression was knocked out via a transient electroporation of CAS9 protein with CRISPR guide RNA sequences against mouse ENTPD2, and human ENTPD2 was overexpressed using a retroviral transduction approach.
Once tumors reached approximately 35-50 mm^3, mice were randomized according to tumor volume into treatment groups (n=8 per group). […] All doses were adjusted to individual mouse body weights.

[6] = i.v., 10 to 100 mg/kg (10-fold increase in dose)
[7] = single i.v. dose, 3 to 10 mg/kg (3.3-fold increase in dose)
[8] = single agent anti-human ENTPD2 mAb 10 mg/kg D1, no anti-PD-1 Ab

Molecule	Human ENTPD2 ka (human ENTPD2)	Human ENTPD2 kd (human ENTPD2)	inhibition of the catalytic activity of recombinant human ENTPD2 [1]	Apparent FACS binding at 50 nM, NIH/3T3 cells (NIH/3T3 cells)	increase in AUC(0-336h) [2, 6]	increase in AUC(0-inf) [2, 6]	increase in AUC(0-inf) [2, 7]	increase of AUC(0-336h) [2, 7]	Apparent FACS binding at 50 nM, H520 Cells (H520 cells)	anti-drug antibody (ADA) detection [3]	AUC (0-336 h)/D [4]	AUC (0-inf)/D [4]	AUC (0-336 h)/D ([4]; 3 mg/kg)	AUC (0-inf)/D ([4]; 3 mg/kg)	AUC (0-336 h)/D ([4]; 30 mg/kg)	AUC (0-inf)/D ([4]; 30 mg/kg)	Tumor Response ΔT/ΔC (%) [5, 8]	anti-tumor efficacy [5]	Host Response Δ body weight (%) [5, 8]	Host Response Survival (alive/total) [5, 8]
B1	110000 M⁻¹ s⁻¹	0.00019 s⁻¹	potently inhibit	No binding	approximately 9.5 fold	approximately 9.5 fold	5.9 fold	5.3 fold	No binding	detected in one (10 mg/kg) of nine animals	3′160 μg * h/mL/mg/kg	4′083 μg * h/mL/mg/kg	1′894 μg * h/mL/mg/kg	2′042 μg * h/mL/mg/kg	3′145 μg * h/mL/mg/kg	3′811 μg * h/mL/mg/kg	71.7%	No significant anti-tumor efficacy	−0.2%	–
B2	350000 M⁻¹ s⁻¹	0.00026 s⁻¹	–	No binding	–	–	–	–	No binding	–	–	–	–	–	–	–	60.0%	No significant anti-tumor efficacy	−0.1%	8/8

Where two headings read alike, the source gives them in different places.
